Reference: PubChem BioAssay (NCI)
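All cell lines were grown in 96-well plates and treated with compound for 48 hours. GI50 is the concentration that inhibits growth by half. TGI denotes the concentration required for complete inhibition of growth.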

Test system: NCI-H322M lung
Test: DTP human tumour cell line panel, 48 h

| Structure (SMILES) | GI50 | TGI |
| --- | --- | --- |
| COc1cc(/C=N/Nc2ccnc3cc(Cl)ccc23)cc(OC)c1O | 1.72 µM | 3.12 µM |
| CS(=O)(=O)c1ccc2c(c1)c1c(n2C(=O)c2ccc(Cl)cc2)CCCC1 | 31.8 µM | > 100 µM |
